Consider two compounds from PMC6102074 (European journal of medicinal chemistry, 2018).

The target of this assay is T1, human RXFP1 (Homo sapiens, UniProt Q9HBX9).
T1 sequence (Q9HBX9 1-757): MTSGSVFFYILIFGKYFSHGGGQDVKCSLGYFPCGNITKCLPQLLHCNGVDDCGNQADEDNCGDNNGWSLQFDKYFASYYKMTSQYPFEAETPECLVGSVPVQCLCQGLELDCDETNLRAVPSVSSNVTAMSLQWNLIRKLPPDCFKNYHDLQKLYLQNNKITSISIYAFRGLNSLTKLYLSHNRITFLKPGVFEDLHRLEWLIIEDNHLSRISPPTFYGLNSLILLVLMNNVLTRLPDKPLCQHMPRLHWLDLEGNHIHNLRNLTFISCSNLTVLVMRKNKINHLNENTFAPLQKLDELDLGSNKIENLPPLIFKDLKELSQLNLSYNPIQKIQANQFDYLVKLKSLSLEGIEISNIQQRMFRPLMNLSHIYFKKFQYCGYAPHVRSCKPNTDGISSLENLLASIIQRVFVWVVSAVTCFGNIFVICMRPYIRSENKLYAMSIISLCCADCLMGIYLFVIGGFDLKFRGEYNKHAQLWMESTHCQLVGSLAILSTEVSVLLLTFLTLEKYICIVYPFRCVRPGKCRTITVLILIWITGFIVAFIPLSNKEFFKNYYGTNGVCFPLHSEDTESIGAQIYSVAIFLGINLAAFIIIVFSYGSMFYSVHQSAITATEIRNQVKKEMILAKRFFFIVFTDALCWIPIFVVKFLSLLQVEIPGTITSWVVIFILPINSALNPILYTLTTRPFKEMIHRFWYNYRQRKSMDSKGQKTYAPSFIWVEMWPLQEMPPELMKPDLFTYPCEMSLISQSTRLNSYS

Consider `O=C(Nc1cccc(C(F)(F)F)c1)c1ccccc1NC(=O)C1CC1` [Compound 27, 2-(Cyclopropanecarboxamido)-N-(3-(trifluoromethyl)phenyl)benzamide], for which, for the setting “relative to compound 3”, the “reduction in activity from parent compound 3” value is > 4 fold.

Consider `CCOc1ccccc1C(=O)Nc1ccncc1C(=O)Nc1cccc(S(=O)(=O)C(F)(F)F)c1` [Compound 51, 4-(2-Ethoxybenzamido)-N-(3-((trifluoromethyl)sulfonyl)phenyl)nicotinamide], for which the “reduction in activity from compound 40” value (relative to compound 40) is given as ~3 fold.
